# The supplement of paper PMC3724861
# This is one part of the list.
# System: T1, Caupolican (Caup) homeodomain DNA-binding domain
# T1 sequence: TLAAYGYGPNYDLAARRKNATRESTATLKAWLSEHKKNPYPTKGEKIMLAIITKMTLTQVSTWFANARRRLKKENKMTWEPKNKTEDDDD
# Assay: PBM E-score (8-mer, recovered from the published 9-mer minima) (E-score (dimensionless, -0.5 to 0.5)); Drosophila protein; higher = stronger relative binding preference, active = 0.31 or more
# Summary of the method: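 Caup's homeodomain DNA-binding domain (residues 214-303) was made by in vitro transcription and translation and applied at 100 nM to custom-designed protein binding microarrays. Each value is an enrichment score that gives relative binding preference for a short DNA word, with higher meaning stronger. The 8-mer values were recovered from published 9-mer scores, each of which was the minimum of its two constituent 8-mer scores. A cutoff of 0.31 marks candidate sites.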
row,Sequence,PBM E-score
1,CTTAGTGC,inactive: -0.0352
2,GAAGGCAC,inactive: -0.111
3,CCATGTCA,active: 0.398
4,GGCAGCCC,inactive: -0.299
5,GTATACAC,inactive: 0.249
6,CCTGAACC,inactive: 0.0376
7,ACAGGCAT,inactive: 0.0723
8,AGGATCGA,inactive: 0.0109
9,AGCCGGAG,inactive: -0.17
10,ACTTGCGA,inactive: -0.0428
11,AAGTATAT,inactive: 0.117
12,CCGGACCA,inactive: -0.157
13,ACAAGCCC,inactive: 0.0654
14,AAACGTGC,inactive: 0.0258
15,CGAATTAA,inactive: 0.0467
16,AGCTTCCG,inactive: -0.202
17,CCATGTCG,active: 0.362
18,ATGGCGTC,inactive: -0.107
19,AGTTTATA,inactive: 0.19
20,CCCATAAC,inactive: 0.0433
21,AGGTAAAG,inactive: 0.0737
22,AATTACTG,inactive: 0.174
23,ACTGCGCA,inactive: -0.105
24,ACAGTTGA,inactive: 0.0862

row,Sequence,PBM E-score
1,CATGGACC,inactive: -0.0181
2,ACCCCATC,inactive: -0.158
3,ATCCGACC,inactive: 0.0552
4,ATCAGTAG,inactive: 0.125
5,ACATATGC,inactive: 0.198
6,CGAGTATA,inactive: 0.0699
7,TCTTGCAA,inactive: 0.0461
8,ATATTTTA,inactive: 0.119
9,CGCTAACA,inactive: 0.156
10,TGGAGTAA,inactive: 0.0245
11,CGAAATCC,inactive: -0.0251
12,CCCAGGGA,inactive: -0.278
13,AACAGCCT,inactive: 0.00139
14,ATCCTGAC,inactive: 0.0403
15,ACGTTATC,inactive: 0.0197
16,AGCACTGA,inactive: -0.0101
17,GCCACCGA,inactive: -0.108
18,AGACCGAC,inactive: -0.00849
19,AGAGTTGG,inactive: -0.0475
20,GGTGGCAA,inactive: -0.0972
21,CGTCTGAG,inactive: -5e-05
22,ATAATTGC,inactive: 0.0527
23,CAACGTAA,inactive: 0.146
24,CGATAAGA,inactive: 0.0571

row,Sequence,PBM E-score
1,CATGTCTC,active: 0.314
2,CAAGGTAC,inactive: 0.162
3,CGTTCATC,inactive: -0.0383
4,ATTACAGA,inactive: 0.208
5,AAGAAGTG,inactive: 0.019
6,ATACGTAC,inactive: 0.151
7,CCCTGGAG,inactive: -0.219
8,ATTGTAGG,inactive: 0.185
9,AGGGGACA,inactive: 0.0584
10,CCAAATTC,inactive: -0.0349
11,ATGACCCA,≥ 0.0525
12,CCCATAGC,inactive: -0.184
13,CTATATTA,inactive: 0.168
14,CCTACCTC,inactive: -0.19
15,TACTTCAA,inactive: 0.0215
16,CTACTGAA,inactive: -0.0489
17,CGGGCAAG,inactive: -0.19
18,CCCCCGTA,inactive: -0.259
19,GTCGGGAA,inactive: 0.0947
20,CCATATTA,inactive: 0.105
21,AAATGCAC,inactive: 0.0478
22,TATGCCCA,inactive: -0.107
23,ATCAAGTG,inactive: 0.0753
24,TAGTGTAA,inactive: 0.207

row,Sequence,PBM E-score
1,GGCCTCTA,inactive: -0.17
2,GAGATAGA,inactive: -0.0381
3,TCCATGGA,inactive: 0.0552
4,AAACCCGA,inactive: 0.00051
5,AAGGAAGA,inactive: -0.049
6,ACCTGCTG,inactive: -0.0251
7,CGCGAGAC,inactive: -0.026
8,CCCATGTA,active: 0.326
9,AGGCATGC,inactive: -0.0249
10,GTGATTGA,inactive: 0.148
11,CGCAAACC,inactive: -0.0612
12,AAGTGTAC,inactive: 0.304
13,GGTTGAAA,inactive: 0.0224
14,AACTTCAG,inactive: -0.0565
15,AGGAGTTC,inactive: -0.0161
16,GGGCGTAA,inactive: -0.112
17,CTGGCCTC,inactive: -0.317
18,CCTCTAAG,inactive: -0.165
19,CCTAAGTC,inactive: -0.13
20,AGTGAAAT,inactive: 0.102
21,ACGGTGGA,inactive: -0.0915
22,CCTGAACA,inactive: 0.172
23,GAGCCCAC,inactive: -0.209
24,AGGCAGAC,inactive: -0.122

row,Sequence,PBM E-score
1,GACTTCTA,inactive: -0.00358
2,ACTCGACT,inactive: 0.0127
3,ACTATAGG,inactive: 0.0488
4,CAAAGTAG,inactive: 0.035
5,AATCTCCA,inactive: -0.0273
6,CGGGGGAC,inactive: -0.287
7,CATTGGAA,inactive: 0.0314
8,ACCATCAG,inactive: -0.00028
9,CCCTGAGC,inactive: -0.154
10,ACTTCACC,inactive: -0.105
11,AGCTTATA,inactive: 0.0727
12,ATTGTACG,inactive: 0.203
13,GTCCAGTA,inactive: 0.0872
14,AACACAAT,active: ≥ 0.319
15,GCTATGAA,inactive: 0.0275
16,GAAACTAA,inactive: 0.00733
17,ATACACGC,inactive: 0.275
18,ATCGGGTG,inactive: -0.151
19,CTGCCCCA,inactive: -0.191
20,AATCCGCA,inactive: -0.0689
21,CTGGCGTA,inactive: -0.124
22,CTATGGTC,inactive: -0.105
23,AAGGTATC,inactive: -0.0367
24,AGGGCCTA,≥ -0.09

row,Sequence,PBM E-score
1,CTGGCATC,inactive: -0.0567
2,ACGCTTTC,inactive: -0.0657
3,TCCGGTCA,≥ -0.0188
4,AATGTGCT,inactive: 0.0465
5,GATCATGA,inactive: 0.0824
6,CTCATCAC,inactive: -0.0312
7,GCTGCATA,inactive: 0.0163
8,CACCTTGC,inactive: 0.00581
9,TGGCTACA,≥ 0.145
10,AAGGGAGA,inactive: -0.0421
11,CAAACAAA,inactive: 0.196
12,AAGTGCTA,≥ 0.0785
13,CGACGGTC,inactive: -0.132
14,GGTTGGAC,inactive: -0.0858
15,CAAACAGC,inactive: 0.168
16,AGCGTCGA,inactive: 0.017
17,AATGGCCA,inactive: -0.155
18,AGCTTTCA,inactive: -0.00247
19,ACCCCGAT,inactive: -0.182
20,CGCCCGAG,inactive: -0.215
21,ATAACATA,active: 0.356
22,CTGGGTAA,inactive: -0.0481
23,ACTCCTAA,inactive: -0.0226
